{"source": "PubChem BioAssay AID485281", "about": "(National Center for Advancing Translational Sciences (NCATS), 2010)", "note": "In all, about 350,000 compounds went through this assay and about 260 (0.074%) were called active. Inconclusive means that the source gave no clear call. Such entries were picked first, then a sample of the others. The call rests on the fitted dose curve; in most records, active means well fitted inhibition curve with a large enough effect; inconclusive means small, poorly fitted or top-dose-only effect; inactive means no such curve, though single readings can be large or run the other way. Potencies beside an inconclusive call are fits to weak or partial responses and may not hold up. On the % scale 0 is the no-effect control and ±100 the full control effect; potency means the concentration at half of the fitted maximal effect; tags describe the fitted curve by direction and shape."}
{"target": "Ferritin light chain (Equus caballus) (UniProt P02791)", "sequence (P02791 whole entry, looked up)": "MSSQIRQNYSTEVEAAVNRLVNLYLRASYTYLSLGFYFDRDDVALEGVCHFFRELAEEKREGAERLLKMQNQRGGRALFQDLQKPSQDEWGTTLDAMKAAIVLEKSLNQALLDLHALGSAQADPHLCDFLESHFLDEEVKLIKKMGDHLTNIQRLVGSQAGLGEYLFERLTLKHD", "assay": "qHTS Assay for Identification of Novel General Anesthetics; further: nearly all actives have a fitted effect of over 20% in size", "conditions": "apoferritin/1-aminoanthracene competitive binding, fluorescence; activity change, negative = displacement: at 77.5 µM (top of the series)", "in_short": "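In PBS, apoferritin at 10 uM is loaded with 1-AMA from a 50% saturated solution. After 10 min of compound exposure at ambient temperature, reduced 535 nm fluorescence indicates probe displacement.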"}
{"smiles": "Cc1ccc(CNC(=O)CN(c2ccc(C)cc2)S(=O)(=O)c2c(C)nn(C)c2C)cc1", "Potency": "inconclusive: 20 µM [inhibitor, partial curve]"}
{"smiles": "CCCCC1CCC(/C(N)=N/O)CC1", "note": "(stereo not given)", "Potency": "inconclusive: 56.2 µM [inhibitor, single point]"}
{"smiles": "CC(C(=O)Oc1ccc2c(c1)OCO2)N1C(=O)c2ccccc2C1=O", "note": "(stereo not given)", "Potency": "inconclusive: 44.7 µM [inhibitor, partial curve]"}
{"smiles": "COc1ccc(C(=O)NCc2cn3ccsc3n2)cc1OC", "activity change, negative = displacement": "inactive: 7.11%"}
{"smiles": "Cc1occc1-c1nnc(SCC(=O)Nc2nc(C(C)(C)C)cs2)o1", "activity change, negative = displacement": "inactive: -23.7%"}
{"smiles": "CC(C)n1c(CSCc2ccc(Cl)cc2Cl)n[nH]c1=S", "Potency": "inconclusive: 22.4 µM [inhibitor, partial curve]"}
{"smiles": "COc1ccc(CC(=O)OCC(=O)c2ccc(OC)cc2)cc1", "Potency": "inconclusive: 28.2 µM [inhibitor, partial curve]"}
{"smiles": "O=C(c1ccccc1)N1N=C(C(F)(F)F)CC1(O)c1ccccc1O", "note": "(stereo not given)", "Potency": "inconclusive: 17.8 µM [inhibitor, partial curve]"}
{"smiles": "CCC(C)NC(=O)CSc1nc2n[nH]c(C)c2c(=N)n1-c1ccc(C)c(Cl)c1", "note": "(stereo not given)", "Potency": "inconclusive: 0.891 µM [inhibitor, full curve, poor fit]"}
{"smiles": "COC(=O)COc1ccc(-c2nccc(-c3ccccn3)n2)cc1", "activity change, negative = displacement": "inactive: 0.279%"}
{"smiles": "COc1ccc(OCC(=O)NNC(=O)c2cccc(C)c2)cc1", "Potency": "inconclusive: 20 µM [inhibitor, partial curve]"}
{"smiles": "CCc1nn(CC(=O)NCc2ccccc2Cl)c(=O)c2cccn12", "Potency": "inconclusive: 5.62 µM [inhibitor, full curve]"}
{"smiles": "O=C(OCn1ncc(Br)c(Br)c1=O)c1ccccc1Cl", "Potency": "inconclusive: 31.6 µM [inhibitor, partial curve]"}
{"smiles": "O=C(Nc1ccncc1)OCc1ccccc1", "Potency": "inconclusive: 39.8 µM [inhibitor, partial curve]"}
{"smiles": "O=C1C2=C(NC(=S)NC2c2ccc(Cl)cc2)NC(c2ccc(Cl)cc2)N1c1ccc(Cl)cc1", "note": "(stereo not given)", "Potency": "inconclusive: 4.47 µM [inhibitor, full curve]"}
{"smiles": "Cc1cc2c(c(=O)o1)C(CCC1CCCCC1)C(C#N)=C(N)O2", "note": "(stereo not given)", "Potency": "inconclusive: 44.7 µM [inhibitor, single point]"}
{"smiles": "CCOC(=O)c1cc2c(s1)-c1ccccc1CC2", "Potency": "inconclusive: 15.8 µM [inhibitor, partial curve]"}
{"smiles": "CCc1ccccc1NC(=O)c1cc(S(=O)(=O)N2CCCc3ccccc32)ccc1F", "activity change, negative = displacement": "inactive: -2.42%"}
{"smiles": "Cc1ccc(-c2nnn(CC(=O)N3CCC(C)CC3)n2)o1", "Potency": "inconclusive: 50.1 µM [inhibitor, single point]"}
{"smiles": "O=C(CC1C(=O)NCCN1CC1CCCCC1)NCc1cc(F)ccc1F", "note": "(stereo not given)", "Potency": "inconclusive: 28.2 µM [inhibitor, partial curve]"}
{"smiles": "Cc1ccnc(NC(=O)C23CC4CC(CC(C4)C2)C3)c1", "Potency": "inconclusive: 12.6 µM [inhibitor, partial curve]"}
{"smiles": "COc1ccc(C2=C(Nc3ccc(C)c(C)c3)c3ccccc3C2=O)cc1", "Potency": "inconclusive: 39.8 µM [inhibitor, single point]"}
{"smiles": "Cc1ccccc1Cn1ccc(-c2ccc3c(c2)OCO3)n1", "activity change, negative = displacement": "inactive: -5.39%"}
{"smiles": "O=[N+]([O-])c1cc(Cl)ccc1Sc1cccc2cccnc12", "Potency": "inconclusive: 31.6 µM [inhibitor, partial curve]"}
{"smiles": "CCOC(=O)Cn1c(=O)oc2cc(S(=O)(=O)N3CCN(c4ccc(C(C)=O)cc4)CC3)ccc21", "Potency": "inconclusive: 11.2 µM [inhibitor, partial curve]"}
{"smiles": "CC1(C)CC(=O)C2=C(C1)c1c(ccc3ccccc13)NC2c1ccc(Br)o1", "note": "(stereo not given)", "activity change, negative = displacement": "inactive: 3.22%"}
{"smiles": "CC[n+]1c(/C=C/c2ccc(OC(C)=O)c(OC)c2)ccc2ccccc21", "activity change, negative = displacement": "inactive: 126%"}
{"smiles": "CCN1CCc2c(C#N)c(N3CCOCC3)nc(NCCO)c2C1", "activity change, negative = displacement": "inactive: 88.4%"}
{"smiles": "CCN(CC)S(=O)(=O)c1ccc(NS(=O)(=O)c2ccc(C)c(C)c2)cc1", "Potency": "inconclusive: 35.5 µM [inhibitor, partial curve]"}
{"smiles": "Cc1ccc(-c2csc(NC(=O)CSc3nc4ccccc4c(=O)n3CCCN(C)C)n2)cc1", "Potency": "inconclusive: 31.6 µM [inhibitor, partial curve]"}
{"smiles": "CCN(CC)C(=O)c1csc(Nc2cccc3ccccc23)n1", "Potency": "inconclusive: 44.7 µM [inhibitor, single point]"}
{"smiles": "CCn1ncc(Cl)c1C(=O)Nc1cc(Cl)ccc1Cl", "Potency": "inconclusive: 14.1 µM [inhibitor, partial curve]"}
{"smiles": "Nc1c(Cl)cnc(C(Cl)(Cl)Cl)c1Cl", "Potency": "inconclusive: 22.4 µM [inhibitor, partial curve]"}
{"smiles": "COc1ccc(-c2cn3nc(SCC(=O)Nc4ccc(C)c(Cl)c4)ccc3n2)cc1", "activity change, negative = displacement": "inactive: 47.4%"}
{"smiles": "CSc1ccccc1OCc1cc(C(=O)NCc2cnc(C)cn2)no1", "Potency": "inconclusive: 15.8 µM [inhibitor, partial curve]"}
{"smiles": "Cc1ccc(NC(=O)c2ccccc2NS(=O)(=O)c2ccc(Cl)s2)cc1", "activity change, negative = displacement": "inactive: -5.17%"}
{"smiles": "O=C(c1ccccc1)c1cnc(Nc2ccccc2Cl)s1", "Potency": "inconclusive: 15.8 µM [inhibitor, partial curve]"}
{"smiles": "O=C(CSc1nnc(-c2ccccc2Cl)o1)Nc1ccc2c(c1)OCCO2", "Potency": "inconclusive: 39.8 µM [inhibitor, single point]"}
{"smiles": "CCN(CC)c1ccc(/C=C/C(=O)c2ccc(Br)cc2)cc1", "activity change, negative = displacement": "inactive: -2.48%"}
{"smiles": "CCOc1ccc(-c2cc(NC(=O)c3c(F)cccc3F)c(C(=O)O)s2)cc1", "activity change, negative = displacement": "inactive: -9.84%"}
{"smiles": "CC(C)(C)C(=O)Nc1cc(C(F)(F)F)ccc1N1CCOCC1", "activity change, negative = displacement": "inactive: -9.88%"}
{"smiles": "COc1cc(NC(=O)Nc2ccccc2)c(OC)cc1NC(=O)CN1CCCCC1", "Potency": "inconclusive: 31.6 µM [inhibitor, single point]"}
{"smiles": "CCOC(=O)c1sc(N2N=C(C)C(N=Nc3cccc(C)c3)C2=O)nc1C", "note": "(stereo not given)", "Potency": "inconclusive: 31.6 µM [inhibitor, single point]"}
{"smiles": "COc1ccccc1C(=O)Nc1nnc(-c2ccc3c(c2)CCCC3)o1", "Potency": "inconclusive: 22.4 µM [inhibitor, partial curve]"}
{"smiles": "O=S(=O)(NCC1OCCc2ccccc21)c1ccccc1", "note": "(stereo not given)", "Potency": "inconclusive: 39.8 µM [inhibitor, partial curve]"}
